PubChem BioAssay AID686978 (National Center for Advancing Translational Sciences (NCATS), 2013)
Out of some 420,000 compounds screened, about 64,000 (15%) were called active. Inconclusive means that the source gave no clear call. Such entries were picked first, then a sample of the others. Calls come from the whole dose curve; as a rule, active = well fitted inhibition curve with a large enough effect; inconclusive = small, poorly fitted or top-dose-only effect; inactive = flat fitted curve, though single readings scatter. Potencies of inconclusive entries are left out as doubtful fits.
% is set by controls: 0 for no effect and ±100 for the full control effect; potency is the fitted concentration of half-maximal effect; tags give direction and shape of the fitted curve.

Assay: qHTS for Inhibitors of human tyrosyl-DNA phosphodiesterase 1 (TDP1): qHTS in cells in absence of CPT; note: nearly all actives have a fitted effect of over 55% in size
Settings: DT40 Tdp1-/- hTDP1 cells, no CPT, ATP luminescence, 48 h; activity change, negative = growth inhibition: at 46.2 µM (top of the series) unless noted
In short: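 Chicken DT40 Tdp1-/- cells complemented with human TDP1, screened without camptothecin (DMSO vehicle only), 400 cells/well. Compounds pin-transferred, cells incubated at 37 °C for at least 48 hr. Growth read as ATP-dependent luminescence (CellTiter-Glo, 30 min at RT).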
With COc1ccc(Cc2c(-c3cccc(Br)c3)nc3ccc(Cl)cn23)c(C)c1 the Potency was inconclusive [inhibitor, partial curve, poor fit].
For CS(=O)(=O)Nc1cccc(-c2cncnc2NCc2ccccc2)c1, the Potency was “inactive”.
For COc1ccc(OCc2cc(C(=O)NCC3(C)COC3)no2)c(Cl)c1, the Potency was inconclusive [inhibitor, single point].
For O=C(NCCC1=CCCCC1)c1ccc2c(c1)N(Cc1ccccc1F)C(=O)c1ccccc1S2(=O)=O, the Potency was active: 16.4 µM.
In the case of COc1cccc(NC(=O)C(NCCc2ccc(S(N)(=O)=O)cc2)c2ccccc2)c1 (stereo not drawn), the Potency was “inactive”.
In the case of CC1(C)Oc2cc(N)c([N+](=O)[O-])cc2O1, the Potency was “inactive”.
With CCc1nc2ccc(C(=O)Nc3ccc4c(c3)OCC(=O)N4)cn2c1N(CC)CCOC the Potency was inconclusive [inhibitor, single point].
In the case of CCOC(=O)C(C(C)=O)c1c(Br)c(O)c(O)c2c(C(=O)c3ccc(C)cc3)coc12 (stereo not drawn), the Potency was active: 2.59 µM.
In the case of CCc1cccc(N2C(=O)CS(=O)(=O)C23C(=O)N(Cc2ccc(F)cc2)c2ccc(C)cc23)c1 (stereo not drawn), the Potency was active: 23.1 µM.
For CNC(=S)Nc1ccc(C(N)=O)cc1, the Potency was “inactive”.
With COc1ccc(N2CCN(C(=O)CCC(=O)N3CC(C)Oc4ccc(C)cc43)CC2)cc1 (stereo not drawn) the Potency was inconclusive [inhibitor, single point].
For CC(c1nccs1)N(C)C(=O)CCc1nnc(Cc2c[nH]c3ccccc23)o1 (stereo not drawn), the Potency was “inactive”.
In the case of COc1ccccc1-c1cc2nc(NCCc3ccc(S(N)(=O)=O)cc3)ccn2n1, the Potency was active: 20.6 µM.
For Cc1ccc(C(O)c2ncc(-c3ccc(Cl)cc3)[nH]2)c(C)c1 (stereo not drawn), the Potency was active: 16.4 µM.
For O=C(NCCCNc1ccc([N+](=O)[O-])cc1Cl)c1ccccc1F, the Potency was inconclusive [inhibitor, single point].
For COc1ccc([N+](=O)[O-])cc1CSc1nnc(NC(C)=O)s1, the Potency was “inactive”.
In the case of CCCCn1c(C(C)NC(=O)c2cccs2)nc2ccccc21 (stereo not drawn), the activity change, negative = growth inhibition was inconclusive: -35.3% [inhibitor].
With COc1ccc(/C=C(\NC(=O)c2ccccc2)C(=O)N2CCC(C)CC2)cc1 the Potency was inconclusive [inhibitor, single point].
With Cc1onc(-c2ccccc2)c1-c1nnc(COC(=O)c2ccc(N(C)C)cc2)o1 the Potency was active: 20.6 µM.
For COc1cccc(-n2nnc3c(=O)n(CC(=O)N4CCC(Cc5ccccc5)CC4)cnc32)c1, the Potency was inconclusive [inhibitor, single point].
With Cc1ccc(SCc2c(C(=O)N/N=C/C3CC=CCC3)nnn2-c2nonc2N)cc1 (stereo not drawn) the Potency was “inactive”.
With Cc1ccc(NC(=O)COC(=O)Cn2cnc3c2c(=O)n(C)c(=O)n3C)cc1Cl the Potency was “inactive”.
With Cc1cccc(C(=O)OCC(=O)NC(=O)NC2CCCCC2)c1 the Potency was “inactive”.
With CN(C)c1ncc2nc(-c3cccs3)c(=O)n(C3CC3)c2n1 the Potency was “inactive”.
With N#Cc1ccc(C(=O)Nc2nnc(-c3cccs3)o2)cc1 the Potency was active: 7.31 µM.
With Cc1nc(-c2cccnc2)sc1C(=O)Nc1cccc(C(F)(F)F)c1 the Potency was active: 18.4 µM.
In the case of Cc1ccc(NC(=O)CN2C(=O)C(C)(C)c3ccccc32)cc1, the Potency was inconclusive [inhibitor, single point].
For COc1ccc(OCC(=O)NC2CCCCCCC2)cc1, the Potency was inconclusive [inhibitor, partial curve, poor fit].
In the case of Cc1cc(C)c2c(N)c(C(=O)Nc3ncc(C)s3)sc2n1, the Potency was active: 18.4 µM.
In the case of CCOC(=O)c1c(NC(=O)c2ccc(S(=O)(=O)N3CCCC(C)C3)cc2)sc2c1CCN(C(C)C)C2 (stereo not drawn), the Potency was active: 10.3 µM.
For Cc1ccc(NC(=S)N2CCC(c3ccccc3)C2)c(Cl)c1 (stereo not drawn), the Potency was inconclusive [inhibitor, single point].
In the case of Cc1csc(NC(=O)C2=COCCO2)n1, the Potency was inconclusive [inhibitor, single point].
In the case of NNC(=O)c1ccc([N+](=O)[O-])c(CS(=O)(=O)c2ccc(Cl)cc2)c1, the activity change, negative = growth inhibition was inconclusive: -12.9% [inhibitor].
For Cc1ccc(S(=O)(=O)c2nc(-c3ccco3)oc2SCc2ccccc2Cl)cc1, the Potency was inconclusive [inhibitor, single point].
For O=C(CSc1ccc(Cl)cc1)N1CCN(c2ncc(C(F)(F)F)cc2Cl)CC1, the Potency was inconclusive [inhibitor, single point].
For Cn1cnnc1SCc1ccc(-c2ccc(Br)cc2)o1, the Potency was inconclusive [inhibitor, single point].
For O=C(NCCc1ccccc1)C1CCC(Cn2c(=O)c3ccccc3n(Cc3cccc(F)c3)c2=O)CC1 (stereo not drawn), the Potency was inconclusive [inhibitor, partial curve].
For Nc1ccccc1Sc1nc2ccccc2[nH]1, the Potency was active: 14.6 µM.
With COc1ccc(C(CNC(=O)C(C)Oc2ccc(Br)cc2)N2CCCC2)cc1 (stereo not drawn) the Potency was inconclusive [inhibitor, single point].
In the case of COc1ccc(N2CC(NC(=O)COc3ccccc3C)CC2=O)cc1OC (stereo not drawn), the Potency was inconclusive [inhibitor, partial curve, poor fit].
With COc1ccc2c(c1)C(=O)N(c1ccccc1OC)C(=O)C2(C)C the Potency was “inactive”.
In the case of COc1ccc(C(O)c2ncc(-c3ccccc3)[nH]2)c(OC)c1 (stereo not drawn), the Potency was “inactive”.
In the case of CN(c1ccccc1C(=O)Nc1cccc(Br)c1)S(=O)(=O)c1ccccc1, the Potency was inconclusive [inhibitor, single point].
In the case of COC(=O)C1=C(C)NC(=O)CC1c1cccc(Cl)c1Cl (stereo not drawn), the Potency was inconclusive [inhibitor, single point].
For O=C(NCc1ccccc1)C1=C[C@@H](c2csc3ccccc23)C[C@@H](OCCCCO)O1, the Potency was active: 1.64 µM.
With C#CCOc1ccc2c(C)cc(=O)oc2c1 the Potency was inconclusive [inhibitor, single point].
In the case of Cc1ccc(S(=O)(=O)NCc2ccccc2)cc1C(=O)NCCc1ccc(S(N)(=O)=O)cc1, the Potency was “inactive”.
In the case of CCOC(=O)C1=C(CC)OC(N)=C(C#N)C1c1ccc(F)cc1F (stereo not drawn), the Potency was inconclusive [inhibitor, single point].
